According to paper PMC12136788:
The other results are listed elsewhere or left out.

T1: UNK ZnF1-3 (human, UniProt Q9C0B0 31-174)
T1 sequence: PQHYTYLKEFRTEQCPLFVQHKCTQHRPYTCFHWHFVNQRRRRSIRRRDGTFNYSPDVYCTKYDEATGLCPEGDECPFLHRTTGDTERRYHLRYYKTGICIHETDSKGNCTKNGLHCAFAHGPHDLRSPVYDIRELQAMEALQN

B1: chr1:220276048:220276049:+_ENSG00000067704_ENST00000302637|hu_hu|hu_hu_hu_mus_True|48_88 (ssRNA)
RNA: GGGAGUUCUACAGUCCGACGAUCGCAAAUUGCCUGGUUGGCGGGAAUCGUCCAAGGCUGGGUGGUCCAAACUAAAACGCUAACAGGAGAUGAACCAUCUGUAAGAGACUCCAACUUCGGAGGAGGUCUCAGGAGGGGGAAUCUCAACAGAGGAUUGAGCAUCA
B2: chr22:46712247:46712248:+_ENSG00000075218_ENST00000454366|hu_mus|FALSE|FALSE (ssRNA)
RNA: GGGAGUUCUACAGUCCGACGAUCGGUAGACACGGCCUCUGUCUUGCAGCUCAGAUAGGAGUCCCGUCGUUUUAUGCUGACAGUUUUAUUCAACUGAGGUGUCUCGGUGUCGGGGUCCAGCCUUGGUCCUCUUUGCUCUGGAGUCAACAGAGGAUUGAGCAUCA
B3: chr1:225977196:225977197:+_ENSG00000143742_ENST00000304786|hu_hu|FALSE|FALSE (ssRNA)
RNA: GGGAGUUCUACAGUCCGACGAUCAUUUCCAAAAGUAAAUAAAGGCUUUCUAACUGAAAACAUUUGCAUCCCUAGCUCUCUAAAGUAAUUAAAAAGAAAAUUACAAAAAAUGACCUCUAAGCUUCUGAACAGCCCACUUAGUUACAACAGAGGAUUGAGCAUCA
B4: chr14:100422286:100422287:-_ENSMUSG00000072294_ENSMUST00000097079|mus_mus|FALSE|FALSE (ssRNA)
RNA: GGGAGUUCUACAGUCCGACGAUCAGGGGAGGUCCUGGCUUUGUUGAUUGACAAGUCCACUGGCUCAGUUUGUGUCUGAAAGUGAUCUACAGGCAGUGAGUCCUCUGGGGGCUCCCCUUUCACAUUAUUUAGCAAGAGGGGGACCAACAGAGGAUUGAGCAUCA
B5: chr1:63024871:63024872:-_ENSG00000116641_ENST00000251157|hu_mus|motif|central (ssRNA)
RNA: GGGAGUUCUACAGUCCGACGAUCGUCCCCAAUUCGGACCGGGAACAUGUGUUCAUCCAGAGCAUUGACAAGAGCAAAGAAUUUGUCGGGAUAAGGGUCUUGUGUAUGAAUGGAUGAAACAGCAACAACUUCAACAUUAAAUACCAACAGAGGAUUGAGCAUCA
B6: chr3:16083472:16083473:+_ENSMUSG00000047213_ENSMUST00000108345|mus_mus|FALSE|FALSE (ssRNA)
RNA: GGGAGUUCUACAGUCCGACGAUCCGAACCAUUUUGUACUGAAACUUUAUUUCCUUGCCCUUUAGGUCUCUGAUCCACGCUAGUGGCUGACAUUCUUCACCGUAACCCGAGAGGAACCGCCGCCGCCGCCGCCGCUGCCUGGGCCAACAGAGGAUUGAGCAUCA
B7: 25040929_25041646_1894_CDS_ENSMUSG00000024163_ENSMUST00000117509|mouse|control|control (ssRNA)
RNA: GGGAGUUCUACAGUCCGACGAUCCACGUGUUCACGAACCUGGCGGUACUGCUCCCGCUUCUGCUCCCGCCGGGCAGAAGAGGUGCAGUCAUCAUCAGGGAAGAACUCCAGGGGCCUGCUGCCGGCUGAGAUCUGGCACAAAGCCAACAGAGGAUUGAGCAUCA
B8: 29625655_29628867_2727_3pUTR_ENSMUSG00000038084_ENSMUST00000160597|mouse|control|control (ssRNA)
RNA: GGGAGUUCUACAGUCCGACGAUCAAAAACCUCUGCGACAAAGGUUACAAUGAUUUAGAGCUGUUUUUAAGAAAUGUCUUCUAUAAACUUGAUGCCAAGUAUCCUUAAUCAAGCUUGGAUCGACUUCCACUCCUCGAGACUCCACAACAGAGGAUUGAGCAUCA
B9: chr6:87966076:87966077:+_ENSG00000188994_ENST00000369577|hu_hu|FALSE|FALSE (ssRNA)
RNA: GGGAGUUCUACAGUCCGACGAUCUAGAGGAGUAGUAGCAGGGUUUUCCAAACCAUUUGACAAUGGUCCAUUAGCUUGCCUGAGCUCAGAGGCAGAAAUCUGGUCUUGUUUGGUCACAGCUGAUUCUGCUUUGCUUUUAUCCCACAACAGAGGAUUGAGCAUCA
B10: chr10:20042908:20042909:+_ENSMUSG00000037608_ENSMUST00000043881|mus_mus|motif|central (ssRNA)
RNA: GGGAGUUCUACAGUCCGACGAUCGGACCGUGACCGACCUCGUCUAGGACUCCUAGAGUGCCUUCUAUUCCAGACAGGUCGGUAGCCACCUCGAUGGUAUCUCCCUCCUCCUCCUUGAUAAUACCCUCUACCCCUUCCUCUGUACAACAGAGGAUUGAGCAUCA
B11: chr10:57235669:57235670:-_ENSMUSG00000019877_ENSMUST00000020027|mus_mus|motif|central (ssRNA)
RNA: GGGAGUUCUACAGUCCGACGAUCUUCAGAAUUGUGAAGCAGUAUUAACACAGAGUAAGGCUGGAACAUGAAGAUGAACUGCGGUAGUACAUUUGCACAAUAAAUACUUUUAAAGACACAUGUAGUUCUUUAAAAGCUAGAUACCAACAGAGGAUUGAGCAUCA
B12: chr4:48850422:48850423:+_ENSG00000109180_ENST00000264312|hu_mus|FALSE|FALSE (ssRNA)
RNA: GGGAGUUCUACAGUCCGACGAUCAGCGAAUAGAAGUUUAGGAAUUGAACCAUAUUUUGGAUGACUUGACAGGAUUCCUUUACUAAUUAAUCCUUGAGUAAUCAGCAUACUUGUGGCAGCCAACGGCACAGAUCUGAACCAGAACAACAGAGGAUUGAGCAUCA
B13: chr20:52835626:52835627:+_ENSG00000101132_ENST00000441080|hu_hu|motif|central (ssRNA)
RNA: GGGAGUUCUACAGUCCGACGAUCAGCUUCAAGGUUUAUGUUGCUCCCGAAUUUUGCAUACAACUGAACUUUCAAAUCUGCGGACACUCGCUGAAUUGAUUCCACUCUGGAUUCUAAGGCGUCAAUUUCUUCUUGCAAAUUUUUCAACAGAGGAUUGAGCAUCA
B14: 29380636_29382213_4059_CDS_ENSMUSG00000032740_ENSMUST00000040182|mouse|control|control (ssRNA)
RNA: GGGAGUUCUACAGUCCGACGAUCCAUUAUAGAUUCAUUUUCAUUUUCUAAGGAAGACUGCUGGAUUAGAAGCUGUGCAUUCUGGUUCAUAAGUGAAGUACUUUGUGAAUUAAGGGUAGAAUUUUCAACCUGAAGCUUGGCAUUCAACAGAGGAUUGAGCAUCA

Target: T1, UNK ZnF1-3
Assay: nsRBNS (natural sequence RNA bind-n-seq); RBNS binding buffer (assumed for nsRBNS): 25 mM Tris pH 7.5, 150 mM KCl, 3 mM MgCl2, 0.01% Triton X-100, 500 ug/ml BSA, 20 U/ml SUPERase-In, 4 C; UNK is unkempt and MSI1 is Musashi-1; names of the RNAs are library labels; protein concentration not given here; high values mean tight binding

Binder | binding signal [enrichment R]
B1 | 1.31
B2 | 0.585
B3 | 1.37
B4 | 0.761
B5 | 1.95
B6 | 0.935
B7 | 0.671
B8 | 0.802
B9 | 0.698
B10 | 0.72
B11 | 1.13
B12 | 1.59
B13 | 1.12
B14 | 1.01
